# In paper PMC9911399, “Two distinct binding modes provide the RNA-binding protein RbFox with extraordinary sequence specificity”:
# Residue numbers refer to the chain shown, from its start. The list shows a part of the results.
# B1: GGGAUAU (DNA:RNA)
# RNA: GGGAGACCGGAAUUCAGAUUGUCCGGGAUAUUUAAAUCCCGUCGUAGCCACCA
# DNA 1: CAATCTGAATTCCGGTCTCCC
# DNA 2: TGGTGGCTACGACGGGATT
# B2: UGCCCCC (DNA:RNA)
# RNA: B1 RNA with G25U, G27C, A28C, U29C, A30C, U31C
# DNA 1: CAATCTGAATTCCGGTCTCCC
# DNA 2: TGGTGGCTACGACGGGATT
# B3: AGAUGGG (DNA:RNA)
# RNA: B1 RNA with G25A, G27A, A28U, U29G, A30G, U31G
# DNA 1: CAATCTGAATTCCGGTCTCCC
# DNA 2: TGGTGGCTACGACGGGATT
# B4: CGACAUU (DNA:RNA)
# RNA: B1 RNA with G25C, G27A, A28C, U29A, A30U
# DNA 1: CAATCTGAATTCCGGTCTCCC
# DNA 2: TGGTGGCTACGACGGGATT
# B5: UGCCAUG (DNA:RNA)
# RNA: B1 RNA with G25U, G27C, A28C, U29A, A30U, U31G
# DNA 1: CAATCTGAATTCCGGTCTCCC
# DNA 2: TGGTGGCTACGACGGGATT
# B6: AUACGUG (DNA:RNA)
# RNA: GGGAGACCGGAAUUCAGAUUGUCCAUACGUGUUAAAUCCCGUCGUAGCCACCA
# DNA 1: CAATCTGAATTCCGGTCTCCC
# DNA 2: TGGTGGCTACGACGGGATT
# B7: GAAAGGG (DNA:RNA)
# RNA: B6 RNA with A25G, U26A, C28A, U30G
# DNA 1: CAATCTGAATTCCGGTCTCCC
# DNA 2: TGGTGGCTACGACGGGATT
# B8: GCAUCCU (DNA:RNA)
# RNA: B1 RNA with G26C, G27A, A28U, U29C, A30C
# DNA 1: CAATCTGAATTCCGGTCTCCC
# DNA 2: TGGTGGCTACGACGGGATT
# B9: GAGCAAG (DNA:RNA)
# RNA: B1 RNA with G26A, A28C, U29A, U31G
# DNA 1: CAATCTGAATTCCGGTCTCCC
# DNA 2: TGGTGGCTACGACGGGATT
# B10: AUCAAUU (DNA:RNA)
# RNA: B6 RNA with A27C, C28A, G29A, G31U
# DNA 1: CAATCTGAATTCCGGTCTCCC
# DNA 2: TGGTGGCTACGACGGGATT
# B11: AACAGAA (DNA:RNA)
# RNA: B6 RNA with U26A, A27C, C28A, U30A, G31A
# DNA 1: CAATCTGAATTCCGGTCTCCC
# DNA 2: TGGTGGCTACGACGGGATT
# B12: UUUCAGU (DNA:RNA)
# RNA: B6 RNA with A25U, A27U, G29A, U30G, G31U
# DNA 1: CAATCTGAATTCCGGTCTCCC
# DNA 2: TGGTGGCTACGACGGGATT
# B13: CCAUAUC (DNA:RNA)
# RNA: B6 RNA with A25C, U26C, C28U, G29A, G31C
# DNA 1: CAATCTGAATTCCGGTCTCCC
# DNA 2: TGGTGGCTACGACGGGATT
# B14: UAUUAGG (DNA:RNA)
# RNA: B6 RNA with A25U, U26A, A27U, C28U, G29A, U30G
# DNA 1: CAATCTGAATTCCGGTCTCCC
# DNA 2: TGGTGGCTACGACGGGATT
# B15: AACUCCU (DNA:RNA)
# RNA: B6 RNA with U26A, A27C, C28U, G29C, U30C, G31U
# DNA 1: CAATCTGAATTCCGGTCTCCC
# DNA 2: TGGTGGCTACGACGGGATT
# B16: UGUUAAC (DNA:RNA)
# RNA: B1 RNA with G25U, G27U, A28U, U29A, U31C
# DNA 1: CAATCTGAATTCCGGTCTCCC
# DNA 2: TGGTGGCTACGACGGGATT
# B17: AAAGAAC (DNA:RNA)
# RNA: B6 RNA with U26A, C28G, G29A, U30A, G31C
# DNA 1: CAATCTGAATTCCGGTCTCCC
# DNA 2: TGGTGGCTACGACGGGATT
# B18: GCGUACU (DNA:RNA)
# RNA: B1 RNA with G26C, A28U, U29A, A30C
# DNA 1: CAATCTGAATTCCGGTCTCCC
# DNA 2: TGGTGGCTACGACGGGATT
# B19: UGUGCAU (DNA:RNA)
# RNA: B1 RNA with G25U, G27U, A28G, U29C
# DNA 1: CAATCTGAATTCCGGTCTCCC
# DNA 2: TGGTGGCTACGACGGGATT
# B20: UGGGGGA (DNA:RNA)
# RNA: B1 RNA with G25U, A28G, U29G, A30G, U31A
# DNA 1: CAATCTGAATTCCGGTCTCCC
# DNA 2: TGGTGGCTACGACGGGATT
# B21: UUCAACC (DNA:RNA)
# RNA: B6 RNA with A25U, A27C, C28A, G29A, U30C, G31C
# DNA 1: CAATCTGAATTCCGGTCTCCC
# DNA 2: TGGTGGCTACGACGGGATT
# B22: GGGUGUG (DNA:RNA)
# RNA: B6 RNA with A25G, U26G, A27G, C28U
# DNA 1: CAATCTGAATTCCGGTCTCCC
# DNA 2: TGGTGGCTACGACGGGATT
# B23: UUCAAAC (DNA:RNA)
# RNA: B1 RNA with G25U, G26U, G27C, U29A, U31C
# DNA 1: CAATCTGAATTCCGGTCTCCC
# DNA 2: TGGTGGCTACGACGGGATT
# B24: ACGGAGG (DNA:RNA)
# RNA: B6 RNA with U26C, A27G, C28G, G29A, U30G
# DNA 1: CAATCTGAATTCCGGTCTCCC
# DNA 2: TGGTGGCTACGACGGGATT
# B25: GCAACCU (DNA:RNA)
# RNA: B1 RNA with G26C, G27A, U29C, A30C
# DNA 1: CAATCTGAATTCCGGTCTCCC
# DNA 2: TGGTGGCTACGACGGGATT
# B26: UGAUGUU (DNA:RNA)
# RNA: B6 RNA with A25U, U26G, C28U, G31U
# DNA 1: CAATCTGAATTCCGGTCTCCC
# DNA 2: TGGTGGCTACGACGGGATT
# B27: GAAAGAG (DNA:RNA)
# RNA: B6 RNA with A25G, U26A, C28A, U30A
# DNA 1: CAATCTGAATTCCGGTCTCCC
# DNA 2: TGGTGGCTACGACGGGATT
# B28: GAAUGCG (DNA:RNA)
# RNA: B6 RNA with A25G, U26A, C28U, U30C
# DNA 1: CAATCTGAATTCCGGTCTCCC
# DNA 2: TGGTGGCTACGACGGGATT
# B29: UAAGUAG (DNA:RNA)
# RNA: B6 RNA with A25U, U26A, C28G, G29U, U30A
# DNA 1: CAATCTGAATTCCGGTCTCCC
# DNA 2: TGGTGGCTACGACGGGATT
# B30: CCUUGGU (DNA:RNA)
# RNA: B6 RNA with A25C, U26C, A27U, C28U, U30G, G31U
# DNA 1: CAATCTGAATTCCGGTCTCCC
# DNA 2: TGGTGGCTACGACGGGATT
# B31: CACAAUC (DNA:RNA)
# RNA: B6 RNA with A25C, U26A, A27C, C28A, G29A, G31C
# DNA 1: CAATCTGAATTCCGGTCTCCC
# DNA 2: TGGTGGCTACGACGGGATT
# Biological target: T1, RBFOX1 RRM (Homo sapiens, UniProt Q9NWB1 109-208)
# T1 sequence: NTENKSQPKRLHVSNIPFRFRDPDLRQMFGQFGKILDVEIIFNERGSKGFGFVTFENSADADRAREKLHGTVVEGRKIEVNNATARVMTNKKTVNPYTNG
# Assay: EMSA; HiTS-Eq, 1 nM pool, 10 min; buffer printed only for the single-RNA assays: 10 mM Tris pH 7.5, 150 mM NaCl, 3.4 mM EDTA, 0.001% NP-40, 30 C
# Settings: tags: His6 N-terminal (pET28a); label: 5' 32P
# Summary of the method: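 Purified RbFox RRM (wild type or mutant) was equilibrated for 10 min in 50 µL with 1 nM of a 5′-radiolabelled pool of RNA with 7 randomized nucleotides, its flanks annealed to DNA oligonucleotides, across increasing protein concentrations. Free RNA was separated by 8% native PAGE, excised, reverse-transcribed, PCR-barcoded and sequenced on an Illumina HiSeq 2500. Relative association constants came from read-count changes of each variant against the control reaction, normalised to the cognate motif.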
row,Binder,binding signal
1,B1,0.0263 KA relative to UGCAUGU
2,B2,0.00443 KA relative to UGCAUGU
3,B3,0.00903 KA relative to UGCAUGU
4,B4,0.0026 KA relative to UGCAUGU
5,B5,0.0208 KA relative to UGCAUGU
6,B6,0.0068 KA relative to UGCAUGU
7,B7,0.00294 KA relative to UGCAUGU
8,B8,0.0211 KA relative to UGCAUGU
9,B9,0.0175 KA relative to UGCAUGU
10,B10,0.00219 KA relative to UGCAUGU
11,B11,0.00258 KA relative to UGCAUGU
12,B12,0.0155 KA relative to UGCAUGU
13,B13,0.002 KA relative to UGCAUGU
14,B14,0.00719 KA relative to UGCAUGU
15,B15,0.0003 KA relative to UGCAUGU
16,B16,0.0104 KA relative to UGCAUGU

row,Binder,binding signal
1,B17,0.00624 KA relative to UGCAUGU
2,B18,0.00794 KA relative to UGCAUGU
3,B19,0.0291 KA relative to UGCAUGU
4,B20,0.0155 KA relative to UGCAUGU
5,B21,0.00041 KA relative to UGCAUGU
6,B22,0.0275 KA relative to UGCAUGU
7,B23,0.00257 KA relative to UGCAUGU
8,B24,0.0139 KA relative to UGCAUGU
9,B25,0.00725 KA relative to UGCAUGU
10,B26,0.0252 KA relative to UGCAUGU
11,B27,0.0129 KA relative to UGCAUGU
12,B28,0.0283 KA relative to UGCAUGU
13,B29,0.0136 KA relative to UGCAUGU
14,B30,0.0153 KA relative to UGCAUGU
15,B31,0.000755 KA relative to UGCAUGU
